The list shows a part of the results. These are further read-outs of the screen, such as a control signal, another cell line or another target. No call is given for them. The list favours compounds with an active or inconclusive main result.

A short description of this experiment: insulin promoter activators in MIN6 cells, imaging, high-content screening, mouse beta cells (AID 1625).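 Also: total cells summed across four imaged fields per well.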 To be noted: MIN6 insulin promoter-GFP reporter, measured here: cytotoxicity, nuclei count, at 5 µM.
`C[C@H]1C[C@@H](C)C(=O)[C@@H]([C@H](O)CC2CC(=O)NC(=O)C2)C1` yielded a cell count of 340 cells. As for `CN(C)c1ccc(/C=C/c2cc[n+](C)c3ccccc23)cc1`, the cell count was 352 cells. With `CN1C2CCC1/C(=C/c1ccccn1)C(=O)/C2=C\c1ccccn1` the figure was 253 cells; with `CCN(CC)c1ccc(/C=N/c2sc3c(c2C#N)C2CCN3CC2)c(O)c1`, 1180 cells. Take `O=[N+]([O-])c1ccc(NCc2ccccc2)c2nonc12`: the cell count was found to be 1220 cells. `CCc1ccccc1N1C(=O)/C(=C/c2ccc(N3CCN(C)CC3)o2)C(=O)NC1=S` returned a cell count of 1240 cells. With `Clc1ccc2c(c1)C(OC1CN3CCC1CC3)c1ccccc1CS2` (stereo not given) the figure was 415 cells; with `CC1(C)CN=C(Nc2ccc(F)c(F)c2)S1`, 289 cells; with `CCOc1cccc(=NC2CCCCC2)c2c(C)n(C)c(C)c12`, 279 cells.

`CC1(C)C[C@H]2C=C(C=O)[C@]3(C=O)C[C@]3(C)[C@H]2C1` had a cell count of 479 cells. With `COc1cc([C@@H]2c3cc4c(cc3[C@@H](OC)[C@H]3COC(=O)[C@H]23)OCO4)cc(OC)c1O`, the cell count was 480 cells. In turn, `O=c1[nH]c(=O)n(-c2ccc(F)cc2)c(O)c1C=Nc1ccccc1N1CCCC1` displayed a cell count of 1430 cells. Molecule `CCOc1ccc(-c2cc(C)[n+](CCO)c(-c3ccc(OCC)cc3)c2)cc1` registered a cell count of 474 cells.

`CN1CCN(c2ccc(/C=C3\C(=O)NC(=S)N(c4cccc(Br)c4)C3=O)o2)CC1` returned a cell count of 1230 cells.

Molecule `CN1CCN(c2ccc([N+](=O)[O-])c3no[n+]([O-])c23)CC1` displayed a cell count of 243 cells.

In turn, `CCOC(=O)c1c(C)n(Cc2ccccc2)c2ccc(OCC(O)Cn3nc(C)cc3C)cc12` (stereo not given) yielded a cell count of 387 cells. Turning to `CCC(=NCc1ccc(F)cc1)c1c(O)n(C)c(=O)n(C)c1=O`, the cell count was 315 cells. With `c1ccc2c(N3CCNCC3)nsc2c1` the figure was 1070 cells; with `CCOc1cccc(=NC2CCCCC2)c2c(C)[nH]c(C)c12`, 189 cells. As for `O=C1NC(=S)NC(=O)C1=Cc1cccc2cc3ccccc3cc12`, the cell count was found to be 489 cells.

As to `CC[n+]1c(/C=C/C=C/c2ccc(N(C)C)cc2)sc2ccccc21`, the cell count was 208 cells.

Molecule `O=C(c1ccccc1)C(CN1CCCC1)c1ccccc1` (stereo not given) displayed a cell count of 412 cells.

In the case of `Cc1ccc(-c2cc(-c3ccc(C)cc3)[n+](C)o2)cc1`, the cell count came to 263 cells.

Consider `COC(=O)C[C@]1(C(=O)OC)CN(C#N)N(c2ccc(Cl)cc2)C12c1ccccc1-c1ccccc12`, for which the cell count is 355 cells. As for `C=C(C=O)CC1CC(O)[C@]2(C)OC3CC4OC5C[C@]6(C)O[C@]7(C)CCC8OC9C[C@]%10(C)OC%11C(C)=CC(=O)OC%11CC%10OC9C[C@@H](C)C8OC7CC6O[C@]5(C)CC5OC5C4OC3CC2O1` (stereo not given in full), the cell count is 151 cells. With `CN1/C(=C\C=C2C(=O)NC(=S)NC2=O)C(C)(C)c2ccccc21` the figure was 1320 cells; with `CC1CCC(C(C)C)C(OC(=O)Cn2c(COc3ccccc3)[n+](C)c3ccccc32)C1` (stereo not given), 401 cells; with `CCN1/C(=C\C=C\C2=[N+](CC)c3ccccc3C2(C)C)C(C)(C)c2ccccc21`, 278 cells. Next, `CCCCCCCn1c(=O)c(C(=O)Nc2cnccn2)c(O)c2ccccc21`: 424 cells; `Cn1ncnc2c(=O)n(C)c(=O)nc1-2`: 227 cells; `CN(C)C(=S)SSC(=S)N(C)C`: 459 cells. In the case of `Cc1ccc(C(=O)N[C@@H](C)CN2C3=NC[C@H](Cc4ccccc4)N3C[C@H]2Cc2ccc(O)cc2)cc1Br`, the cell count was 473 cells. The molecule `CC1CCC/C=C/C2CC(O)CC2C(O)/C=C/C(=O)O1` (stereo not given) registered a cell count of 296 cells. With `Cc1nc2c(=O)n(C)c(=O)nc-2n(C)n1` the figure was 489 cells. With `O=C1C(=O)c2ccccc2-c2ccccc21` the figure was 262 cells; with `C=CCN1C(=O)/C(=C/c2ccc(N3CCOCC3)o2)C(=O)NC1=S`, 1230 cells. `CN(C)c1ccc(/C=C/C=C/c2sc3ccccc3[n+]2C)cc1`: the cell count was 310 cells. With `CC/C(=C\C=C\[C@@H]1C=C[C@@H]2CCC[C@H]2[C@@H]1C(=O)c1ccc[nH]1)[C@@H]1O[C@@H]([C@@H](C)C(=O)O)CC[C@@H]1C` the figure was 455 cells; with `CCCCc1ccc2[nH]cc(CCN)c2c1`, 1150 cells. `CCCCCCCCCCCCn1ccc(=N)cc1` displayed a cell count of 202 cells.

Source of the values: PubChem BioAssay AID1625 (Sanford-Burnham Center for Chemical Genomics, 2009).
